Experimental data published in the supplement of paper PMC10126150.
Values marked as one replicate rest on one cluster of the flow cell; about a third of the high ones do not repeat.

System: ATP
Assay: switch fluorescence ratio, 500 uM ATP over buffer (Cy3 cluster intensity, sum of 5 cycles each) (fold (ratio)); higher = stronger signal-on switching upon ATP binding; sequences stand for … in TCGTCGGCAGCGTCAGATGTGTATAAGAGACAGTTTTTTTTTTTTTTTTTTTTTTTTT…TC
Details: aptamer strand: ATP DNA aptamer (quencher-CACCTGGGGGAGTATTGCGGAGGAAGG + anchor), 100 nM annealed; ATP concentration: 500 uM; one replicate
Method in brief: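 Between each of five buffer/ATP cycles, the flow-cell was stripped with NaOH and re-annealed. Each cycle imaged Cy3-labelled switching-strand clusters, annealed to 100 nM quencher-labelled ATP aptamer on a modified Illumina MiSeq flow-cell, first in selection buffer and then after 15 min with 500 uM ATP at 22 °C. The fluorescence ratio is summed target-cycle over summed buffer-cycle Cy3 intensity per cluster, averaged per switch-domain sequence, with clusters outside 100-1000 RFU excluded.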
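Further: ATP exposure 15 min at 22 °C before imaging.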

AGTGGTGTCG
switch fluorescence ratio: 0.889

AAGACGCTAT
switch fluorescence ratio: 1.23

GTGCCCTCGT
switch fluorescence ratio: 0.993

GCGCCGCGTA
switch fluorescence ratio: 1.36

TAGCTGTCAA
switch fluorescence ratio: 1.05

GAGGCAACAG
switch fluorescence ratio: 1.47

TGGGAGGCGC
switch fluorescence ratio: 0.983

AGTAAATCGA
switch fluorescence ratio: 1.11

AGATTTCGAG
switch fluorescence ratio: 0.992

TATAGTTTTT
switch fluorescence ratio: 0.988

TCCCCCCTTT
switch fluorescence ratio: 1.49

ACTTCTGGCC
switch fluorescence ratio: 1.07

CAGCACTATT
switch fluorescence ratio: 1.06

TGAGTTTTCT
switch fluorescence ratio: 0.988

AAGACACAAG
switch fluorescence ratio: 1.01

AATATCAACT
switch fluorescence ratio: 0.986

ACATAAGACT
switch fluorescence ratio: 1.04

GTGTCGCAGG
switch fluorescence ratio: 0.969

TACACGCAA
switch fluorescence ratio: 2.86

AAGGGAGCC
switch fluorescence ratio: 0.961

TCTTTAAGG
switch fluorescence ratio: 0.965

TAGATGTCGT
switch fluorescence ratio: 1.01

TGGTTGGTCT
switch fluorescence ratio: 0.99

TATTTTTCAA
switch fluorescence ratio: 0.968

TATAAGCTGA
switch fluorescence ratio: 1.02

TGTATGGGTT
switch fluorescence ratio: 0.99

TGTGTGGGTG
switch fluorescence ratio: 0.984

ATTCACCAAC
switch fluorescence ratio: 1.17

GGACTCCCAA
switch fluorescence ratio: 1.88

TTTCATGAAG
switch fluorescence ratio: 0.977

CCGCGCACGG
switch fluorescence ratio: 1.27

CTCGCGTATC
switch fluorescence ratio: 1.33

TAGTATTACT
switch fluorescence ratio: 0.961

GCGAGAGACA
switch fluorescence ratio: 1.05

GGGGATATT
switch fluorescence ratio: 0.999

ATCCTGTTAG
switch fluorescence ratio: 1.02

CTGATGTAAT
switch fluorescence ratio: 1.36

ATTCGATGTT
switch fluorescence ratio: 0.998

AATAGTTGTA
switch fluorescence ratio: 1.12

TTTATGCGCT
switch fluorescence ratio: 1.02

GCACTGTGCG
switch fluorescence ratio: 1.03

CAAGTCGTAG
switch fluorescence ratio: 0.977

ACGGACATGC
switch fluorescence ratio: 1.27

TCAATCATCT
switch fluorescence ratio: 0.993

ACGAGGCCTT
switch fluorescence ratio: 1.04

CGGGTATCGG
switch fluorescence ratio: 0.987

CATTATAAGG
switch fluorescence ratio: 0.996

ATCTTGTATG
switch fluorescence ratio: 0.956

GCTGGGCAA
switch fluorescence ratio: 1.03

CACTAGGTGG
switch fluorescence ratio: 0.994

CACAACCTAT
switch fluorescence ratio: 1.01

CCGCGCTGCG
switch fluorescence ratio: 1.12

GTAGTACATG
switch fluorescence ratio: 1.02

TATGGGGCG
switch fluorescence ratio: 1.03

CGATTATCCA
switch fluorescence ratio: 1.04

GGCCTTGTTC
switch fluorescence ratio: 0.98

ACAGGAACTC
switch fluorescence ratio: 1.02

ATTGTCTGGG
switch fluorescence ratio: 1.02

AGTGGACGAA
switch fluorescence ratio: 0.999

ATATATCAGT
switch fluorescence ratio: 1.03

GACTAAATTA
switch fluorescence ratio: 0.987

TTTCGTGATC
switch fluorescence ratio: 2.79

GCAGCCGCTA
switch fluorescence ratio: 1.21

ATGATGGTTG
switch fluorescence ratio: 0.992

TTGCTAGGTT
switch fluorescence ratio: 0.981

GGGTGCTAGC
switch fluorescence ratio: 1.05

GATGTGCCGG
switch fluorescence ratio: 0.979

AACGTGTAA
switch fluorescence ratio: 1.01

CGGTTGGGAA
switch fluorescence ratio: 1.01

CCCCCCCCAA
switch fluorescence ratio: 1.38

AGCTGAGCTT
switch fluorescence ratio: 1

CGTCCACGGG
switch fluorescence ratio: 1

TGTATTACAG
switch fluorescence ratio: 1.01

CGCGAACTAT
switch fluorescence ratio: 1.01

CCCTTAAAGC
switch fluorescence ratio: 0.985

GATTGCGGCC
switch fluorescence ratio: 1.08

TGATTGTTTC
switch fluorescence ratio: 0.985

AATCGCTTCT
switch fluorescence ratio: 0.963

TAAGCCCGTG
switch fluorescence ratio: 1.01

CTAAGAAGC
switch fluorescence ratio: 0.952

CGGAACAAAT
switch fluorescence ratio: 1.03

GCATACAGGG
switch fluorescence ratio: 1.08

CGATTTTTGG
switch fluorescence ratio: 1

ACAGTCCTAG
switch fluorescence ratio: 1.02

GAATGGAGAC
switch fluorescence ratio: 1.04

GCCAAACGTG
switch fluorescence ratio: 0.981

CCGTGTCCCC
switch fluorescence ratio: 1.8

GTGGAGGCGG
switch fluorescence ratio: 0.989

CTCATGGTTT
switch fluorescence ratio: 0.997

CCAAGAGTGT
switch fluorescence ratio: 1.02

CACTAAGTGT
switch fluorescence ratio: 1.01

TGATCTGTA
switch fluorescence ratio: 0.982

AGAGGATGGA
switch fluorescence ratio: 0.991

TTATGAATT
switch fluorescence ratio: 1.02

GACACCACGC
switch fluorescence ratio: 1.65

ATCTCGAGCG
switch fluorescence ratio: 0.993

CGGGTGCGAT
switch fluorescence ratio: 0.987

GAAACGGGGT
switch fluorescence ratio: 0.957

TTCGTTACGA
switch fluorescence ratio: 1.03

TACGGGGAAA
switch fluorescence ratio: 0.98

GCCAACTGGG
switch fluorescence ratio: 1.02

GAAGCTAAAA
switch fluorescence ratio: 1.03

CTCAAGACAT
switch fluorescence ratio: 1.03

AGTCAGTGGG
switch fluorescence ratio: 0.954

AGTGTCACCG
switch fluorescence ratio: 0.986

AGCTTCAAGG
switch fluorescence ratio: 0.966

GGGGAAGGCT
switch fluorescence ratio: 1.01

CGACGCACGT
switch fluorescence ratio: 3.08

GTTTTCTAGG
switch fluorescence ratio: 0.974

GTGATCGGTG
switch fluorescence ratio: 0.946

GGGATGCCTG
switch fluorescence ratio: 1.1

TTTGTAGTGA
switch fluorescence ratio: 1.05

TTGGGATGAC
switch fluorescence ratio: 1.03

TTTGGTAACC
switch fluorescence ratio: 0.981

AGTTCGCCGC
switch fluorescence ratio: 0.974

CTTAAACTTG
switch fluorescence ratio: 0.97

ACCGTGCTTT
switch fluorescence ratio: 1.01

GCTTCTATT
switch fluorescence ratio: 1.01

CAACCTGGG
switch fluorescence ratio: 1.01

TTGGTTTAG
switch fluorescence ratio: 0.979

GGTGACCTCT
switch fluorescence ratio: 1.01

AGGAAGGAG
switch fluorescence ratio: 1.02

AGCCCCCCCG
switch fluorescence ratio: 1.16

GGTCTGTCAG
switch fluorescence ratio: 0.998

CCCAATAGGA
switch fluorescence ratio: 1.16

CTACTCGGTG
switch fluorescence ratio: 1.01

ACATGCACAT
switch fluorescence ratio: 1.17

ACAATTGGGA
switch fluorescence ratio: 1.02

ATGTTTTAA
switch fluorescence ratio: 1.01

CTGAGGTGAA
switch fluorescence ratio: 1.03

TGATAATCAT
switch fluorescence ratio: 1.01

CTGTTGTGTA
switch fluorescence ratio: 1.01

CTGTTATGG
switch fluorescence ratio: 1.01

CCAATGGTAT
switch fluorescence ratio: 1.01

TACAAGGACT
switch fluorescence ratio: 1.03

TCGAATCCCG
switch fluorescence ratio: 1.03

TGAAGTTCCG
switch fluorescence ratio: 1.04

TGCCAACGTT
switch fluorescence ratio: 0.997

AGCCGGACGA
switch fluorescence ratio: 1.06

AACTGTGTTA
switch fluorescence ratio: 1

TTCTGGTTCT
switch fluorescence ratio: 0.98

TGTTGCAGGA
switch fluorescence ratio: 1.02

TGGATGTAGA
switch fluorescence ratio: 1.03

CGTTGACTGG
switch fluorescence ratio: 1.02

GAAGGTGCTT
switch fluorescence ratio: 1.08

GTACCCAAAT
switch fluorescence ratio: 0.967

AAATGACTTT
switch fluorescence ratio: 0.975

AAGCTTGCT
switch fluorescence ratio: 0.995

AGATGCCGGG
switch fluorescence ratio: 0.949

CTCACAGCTT
switch fluorescence ratio: 1.06

CAGCACGTTC
switch fluorescence ratio: 1.19

ACATGCTTGC
switch fluorescence ratio: 0.992

AATGAATCTG
switch fluorescence ratio: 0.997

TATTGGAAGG
switch fluorescence ratio: 0.962

TGGATAGCCA
switch fluorescence ratio: 1.04

ATGTAGCGTT
switch fluorescence ratio: 1.02

GGCTCTCTAT
switch fluorescence ratio: 0.968
